# Measurements as given in the supplement of paper PMC3334620.
# In all, about 33,000 sequences were measured (“E-score (-0.5 to 0.5)”: median about -0.054, highest 2% from about 0.35 on). This is one part of the list.
# Target: T1, Stb5 (UniProt P38699)
# T1 sequence: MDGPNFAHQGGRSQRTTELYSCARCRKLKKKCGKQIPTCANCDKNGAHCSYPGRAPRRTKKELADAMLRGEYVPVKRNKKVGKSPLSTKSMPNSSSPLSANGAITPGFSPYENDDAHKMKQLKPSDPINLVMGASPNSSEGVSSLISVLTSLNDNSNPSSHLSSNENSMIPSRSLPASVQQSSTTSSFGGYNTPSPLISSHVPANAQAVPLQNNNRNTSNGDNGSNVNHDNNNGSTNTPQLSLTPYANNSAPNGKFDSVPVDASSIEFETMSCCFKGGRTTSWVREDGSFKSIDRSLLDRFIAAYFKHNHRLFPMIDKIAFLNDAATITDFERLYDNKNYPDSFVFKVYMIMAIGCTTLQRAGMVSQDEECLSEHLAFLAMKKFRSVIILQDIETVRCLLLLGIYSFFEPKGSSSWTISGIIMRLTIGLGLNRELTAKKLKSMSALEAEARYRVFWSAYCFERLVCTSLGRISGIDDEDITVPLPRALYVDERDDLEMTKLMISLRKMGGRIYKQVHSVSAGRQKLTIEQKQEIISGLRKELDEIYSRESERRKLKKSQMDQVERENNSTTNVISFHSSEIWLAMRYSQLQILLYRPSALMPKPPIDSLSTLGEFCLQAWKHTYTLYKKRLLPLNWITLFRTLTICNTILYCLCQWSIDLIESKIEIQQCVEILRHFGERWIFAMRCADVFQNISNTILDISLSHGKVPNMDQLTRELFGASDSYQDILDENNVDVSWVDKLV
# Assay: PBM E-score (8-mer binding enrichment) (E-score (-0.5 to 0.5)); higher = stronger / more preferred TF binding; most listed sequences are background and not binding sites
# Conditions: protein concentration: 200 nM; construct: GST-full length
# In short: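 The E-score, a modified Wilcoxon-Mann-Whitney statistic, was computed by the Universal PBM Analysis Suite for every ungapped eight-base word pooled with its reverse complement. Scans behind it were normalised with masliner after bound GST-tagged yeast transcription factors were detected with fluorescent anti-GST. The proteins, at about 100-200 nM, had been applied to universal all-10-mer Agilent arrays made double-stranded by primer extension.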
row,Sequence,PBM E-score
1,TGATCACA,-0.168
2,AGCAACGG,0.203
3,CGAATTCA,0.097
4,CTGGATCA,-0.169
5,AAATGGCG,0.0944
6,CCTACGTA,-0.0656
7,CGGCAATA,0.454
8,TAGAACTA,-0.123
9,AGCCAGGC,-0.243
10,AAATGTCG,0.041
11,AGCCAAAT,0.0567
12,CCGTCTGC,0.299
13,ACAACGAG,-0.139
14,ATGCGGTA,0.243
15,TATTACAA,0.057
16,CAGTCACA,-0.419
17,CTAGGGGA,-0.201
18,AATCTCAT,-0.11
19,CTGGTGTC,-0.178
20,CTCGACAG,-0.164
21,AAGGAGCA,-0.308
22,CACAATCC,0.0404
23,ATTTTTAG,0.0427
24,ACTCACGA,-0.136

row,Sequence,PBM E-score
1,CCAAACTA,-0.236
2,GAGCTGCC,-0.148
3,CGGAAAGA,0.095
4,AACGAACT,-0.105
5,TCGTCGCA,-0.0479
6,CCATAACC,-0.0919
7,GACACTGC,-0.204
8,GTAGTCGA,-0.218
9,AGTACATG,-0.108
10,ACCTGACA,-0.145
11,GGGTGTAC,0.165
12,ATTACTGG,-0.297
13,ACTATGTG,-0.0619
14,CCCAGTCA,-0.177
15,CCGGATCC,0.182
16,AAGGGAGC,-0.334
17,ACCTGAAA,-0.098
18,ACTTCCGG,0.181
19,CAGCGGTC,0.315
20,GATAAAGC,0.201
21,AAGCATGT,-0.12
22,AGCCGGTG,0.295
23,CTCGCAGA,-0.323
24,ATCCTACC,-0.0474

row,Sequence,PBM E-score
1,ACGTCCAT,-0.165
2,AGGTGATC,-0.112
3,GAGGGTAC,-0.231
4,ACTAATGA,-0.0625
5,GGAATTGA,-0.048
6,ACGTATTA,0.0993
7,GGGTTACA,0.174
8,CACTCGTA,-0.177
9,TCCGCTCA,0.234
10,ATTGAAAC,-0.0827
11,GCACCTTA,0.0235
12,CAGGATTC,-0.199
13,CGCGAAGC,0.108
14,CGGCCACG,0.0244
15,CGATCACG,0.0934
16,ACAGTCTC,-0.206
17,AGCGCAGG,0.0159
18,ACTTAGAG,-0.25
19,CGGACTAC,0.119
20,CAGCAGGC,-0.0497
21,CCACAGGG,-0.203
22,CTGGCGAA,-0.147
23,AAGTCGAG,-0.211
24,AGAAGGTA,-0.11

row,Sequence,PBM E-score
1,AGTTGAGC,-0.218
2,CGTGGTCC,-0.0676
3,CCTATGAC,0.00317
4,GGAGTTAA,0.398
5,ATCAGTGA,-0.179
6,AAAATGCT,-0.0926
7,CGATGTCC,0.222
8,TACCTCTA,-0.209
9,CTCCGAGA,0.187
10,ACGACGGA,0.227
11,CAGGGAGA,-0.261
12,AAGTTGGG,-0.316
13,AACTCTGC,-0.236
14,GGAAACTA,-0.0891
15,ATTTCGCG,-0.00503
16,ATTTCAAC,0.00091
17,CGAGGCAG,-0.0808
18,TCATGCGA,-0.0626
19,ATTCGTTC,-0.0694
20,GAAAACTC,-0.0766
21,ATCTGAGC,0.0183
22,AGAAGGAC,-0.384
